This note sets out measurements from article PMC10726135.

The list shows a part of the results. At the low end of the ranking the order means little. Measured with an extract: partners may take part in the binding.

This experiment addresses T1, HNF4alpha2 (COS-7 nuclear extract) (UniProt P41235).
T1 sequence: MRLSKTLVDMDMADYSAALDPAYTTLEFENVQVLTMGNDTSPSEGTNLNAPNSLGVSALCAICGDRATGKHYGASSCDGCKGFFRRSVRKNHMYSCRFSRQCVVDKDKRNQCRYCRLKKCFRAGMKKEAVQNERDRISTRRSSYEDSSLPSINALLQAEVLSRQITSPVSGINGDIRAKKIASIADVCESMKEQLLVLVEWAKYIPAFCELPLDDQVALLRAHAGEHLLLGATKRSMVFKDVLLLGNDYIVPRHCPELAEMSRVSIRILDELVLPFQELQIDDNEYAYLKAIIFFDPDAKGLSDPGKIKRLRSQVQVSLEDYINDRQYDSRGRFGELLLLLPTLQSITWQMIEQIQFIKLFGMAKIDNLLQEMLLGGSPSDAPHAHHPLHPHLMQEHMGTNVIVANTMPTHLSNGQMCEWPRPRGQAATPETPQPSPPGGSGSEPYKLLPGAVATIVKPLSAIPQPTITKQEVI
The experiment is described as follows: protein-binding microarray. Conditions: COS-7 nuclear extract on double-stranded Agilent 4x180k PBM; binding buffer, salt, pH and temperature not given; high values mean tight binding; double strand, one strand shown; sequences stand for … in …GCCTAGGGAGATTAGAGTATCGGTCGA
CGCGGAGCGGGGGACCGAGAGCCGCCGCCG: the binding signal (log2 normalized intensity) was -1.19.

With GGTGAAGATTGGAAATGAATTGATAAACAC, the binding signal (log2 normalized intensity) is -1.25. The result for AAGTAGGGGCTGCTGGCATCTCATTACTGA reads -1.14. As for CATCAGCCCTCCTAGCAAACAATGAGGACG, the figure is -1.16; as for AAGTCCCACGGCAACCTTCCTGGAAACCTT, -1.2; as for GCACCCCACCAAGGACTGGACCACCTCCTC, 0.82. As for TTCCACTCTACCGTCCTCCCCCACGACAGA, the figure is 5.15; as for CCATTCTCAGGCAGATGGGCAGCACTGTGA, -1.11. With GTAAGCCTGGTATTAATGAGGCAAAGGTCA, the binding signal (log2 normalized intensity) came out at 4.94. Regarding ATAGCAAAAGTGACCTTTGCTCCAGTTCCC, the binding signal (log2 normalized intensity) is 7.8. As for TGGCTCGACAACGATTTGGGAAATGAAGGG, the figure is -1.1; as for GAGAAGCCTGAAATGAGTTTCATTAGACAG, -1.04; as for GCTCACTGCACCTTGACCTCCTGGGCCCAA, 3.68. As for CAAAGTCAGGTCAGTAGCCCAGGGTCACAC, the binding signal (log2 normalized intensity) is 1.71. The result for GGACTTGATCCATTCTACCCCTGTGGTTGA reads 2.25; that for AAACACACCCTTGGGGCTGATGTGCACAGT, -0.887; that for ACACGAGCTGTGCGCTTAGTCCATGACGCA, -1.15. The result for AGACTTAGGATCTAGCAAATTTGGGAGGGA reads -1.17; that for GTCAGTCTGATTGGTTGGAGAAAGCAGCCA, 0.0772; that for TTTAAAATGTTTCAAAGTTTTTCCCCTTGG, 2.21. For GTAGGAGCGGGCTTAACTAGGAGCCTGCAC, the binding signal (log2 normalized intensity) is -1.04. As for CTTTGAGTCCCAATCCCCCATCTATTTACA, the binding signal (log2 normalized intensity) came to 3.09. With CTTGGGGGAGGAGGGCAACCTTTGAACTGG, the binding signal (log2 normalized intensity) is 5.3. As for TCCAGAAACCAACCTTTGATCATTCCTGCA, the figure is 4.17; as for ATGGAGGCATCATAAACTCCAACTCAGCCC, -1.01. The result for TCCTAGCCACCATGCTCGGCTGCCTCTCCA reads -1.12; that for GGAAGCTGGGCACAAATTGGAGAGCATCTT, -1.06. The result for CAGCATGTCTTCTGACCTTTGGCAATATCT reads 4.37; that for TGGTAGGGGGGTGTTATCTCTGATGCCCTT, 2.69; that for TTTTTCACTGCTCACAGGTTGTACTATGAC, 2.34. As to TCGCTGCCTGCCCCTCTGACCTCTCCTCCT, the binding signal (log2 normalized intensity) was 3.87. In the case of GGTGGCTTTTGCTGACATGCTCTTGGAATG, the binding signal (log2 normalized intensity) stood at 1.02. The result for ACTGGTTTTTCAGATCCCTCTGGTGCTGAT reads 0.627; that for CTCTGCAGACTGGTGCTATGTCCCTGACTG, 0.386; that for ACAAAGCTCTGCATCCTTCCCTAAGCAGCT, -1.08. As for TGTTTTTATTTCCCCTTTCTGTTGGAAGCT, the figure is 0.983; as for CCAAGACTCGCGATAACCCTCTGGGGCCGG, -1.06; as for GCAGCTCTGCGTCTTACTAAATGCAGCCTT, -1.05. The result for ACACGCATGGCCGGCAGCAGCCTTGCCTTT reads -1.11; that for GGACTTGAGGTCTTATCTTTAGGCCAAACA, 1. ACAAAGAAAGCCAAAGTTCACCCTTTCGCC: the binding signal (log2 normalized intensity) amounted to 1.79. The result for CTGCCCTTTGAAGCATGTGATCTACTCCCT reads 1.49; that for AGTGTGAGTGTCAGAGGCTAAACCTAGCCC, -1.25. With ACACTTCCCAAGCATGTTTGGTGACCCGTG, the binding signal (log2 normalized intensity) worked out at 3.19.

Consider AGGTCTCGAGGCCTCTTTATCTCCTCCCCT, for which the binding signal (log2 normalized intensity) is 3.36. The result for TTGCCAGTTCCCATTTGCGCTGGTTTTATG reads 1.82; that for TTTAAGGTCACATGCCTAGGTAAGCCCACT, -1.06; that for AGCTGGTTTGAAGAATGTGGTCTGGTCATG, 1.77.

AGCTATTGCGAGGTTCCATGGTGTAATGGT: the binding signal (log2 normalized intensity) is 2.06.

Consider CTTGCAATGAGGCGACATCAAAGCATTTGG, for which the binding signal (log2 normalized intensity) was -0.0948. With TTGGTAATCCTGCTCCTTCTGAATCTGTTC, the binding signal (log2 normalized intensity) amounted to 1.46.

As to AGTAGCTAGGAGACAACTTAGAATTTCATT, the binding signal (log2 normalized intensity) is -1.24. The result for AGGACAGACTTTGGACCTGGCCCTCTGGGT reads 4.18; that for GGCCACCTTTGGCCGAAACTCAGTGATTGG, 1.15; that for AGGGTCACAAGGATCCCATTCATGTGGGTC, 0.754. The result for AACTCCCCCTGCCCCCAGGTAGAGAGCAAT reads 4.21; that for CAGCATTCCATTCATTTTAGACATAACAGT, 1.72. As for TGAAGGGCAGGGTTGGCTGTGGCAATTCCT, the figure is -1.29. Consider TCCAAAAAGAATCAGTTACAAGTTAATTTC, for which the binding signal (log2 normalized intensity) was -1.05.

CCTGATGGGATGAGAGAGCCCCTGTGATAC: the binding signal (log2 normalized intensity) was found to be 1.53. The result for CTCCCAAATCTTCTTTAAGCTATGTGGTGG reads 1.68; that for CACACAGACTTGGGTTCAAAGAGCACATTC, 3.21; that for CTGAGCATACAGAACCCATGCTCTTTGGCC, 2.78. As for CCCCCAGCCTCTCACAGTAGCCCAGGTCCT, the binding signal (log2 normalized intensity) is 2.24. The result for AGGAGAAGGGCCCATGGGCTTCAGGGTAAA reads -1.09. Consider AAAAAACCCTAGAGATGTACACAGTTCAAA, for which the binding signal (log2 normalized intensity) is -0.874. With CTTCACCTCCCCTAGACTTACTATTATGCC, the binding signal (log2 normalized intensity) was determined as 1.3. The result for CCTAGCCCCACCAAACTGACAGGTTAGACT reads 2.22; that for AATTGTGAAACTCAGAATCAGGGGATTCTG, -0.838; that for CAAGGTTCCCAGCTAAATAAATAACTCTAA, -1.17. For CTCCAAACATCTTTGGTATGGACTGATATT, the binding signal (log2 normalized intensity) was found to be 1.5. The result for TAGGGCAGGGGGGAGATGAAATCTGGAGCT reads -1.21; that for GTGGGATCCAACCAGAGGGAAGAGATCATG, -0.919.
